The other results are listed elsewhere or left out. Sequences were assembled here from the parent chain. Values near 0.05 are background.
B1: TEV protease; numbered along this chain (parent)
chain: MGESLFKGPRDYNPISSSICHLTNESDGHTTSLYGIGFGPFIITNKHLFRRNNGTLVVQSLHGVFKVKDTTTLQQHLVDGRDMIIIRMPKDFPPFPQKLKFREPQREERICLVTTNFQTKSMSSMVSDTSCTFPSGDGIFWKHWIQTKDGQCGSPLVSTRDGFIVGIHSASNFTNTNNYFTSVPKNFMELLTNQEAQQWVSGWRLNADSVLWGGHKVFMVKPEEPFQPVKEATQL

Variants of: B1
Experiment: raw area under fraction-flipped curve 0-4 h after induction (AUC4h, not background-subtracted), DNA-recorder readout of cleavage of the substrate (dimensionless); higher = more cleavage of the substrate by the protease variant
Conditions: temperature: 34 °C; time window: 0-4 h after rhamnose induction
Procedure: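 In vivo DNA recorder in E. coli TOP10(DE3) ΔrhaA at 34 °C. Each TEVp single-site mutant (parent TEVp 0) is paired with a single-site variant of the 7-mer TEVs (canonical ENLYFQ|S). The substrate sits between flexible linkers in a Bxb1-sfGFP-TEVs-SsrA fusion, so cleavage stabilises Bxb1 and speeds flipping of a recombination array, read by NGS. The value is the raw area under the fraction-flipped curve over 0-4 h after rhamnose induction (AUC4h), with ≥20 reads per time point. It is not background-subtracted; inactive controls average about 0.047.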
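Note: Bxb1 expression induced with 0.2% (w/v) L-rhamnose at OD600 near 0.5, cultures sampled hourly, flipped fraction per protease–substrate barcode pair counted by paired-end Illumina sequencing.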

Row | Variant | area with substrate ENLYAQS | area with substrate ENLYCQS | area with substrate ENLYDQS | area with substrate ENLYEQS | area with substrate ENLYGQS | area with substrate ENLYHQS | area with substrate ENLYIQS | area with substrate ENLYKQS | area with substrate ENLYLQS | area with substrate ENLYNQS | area with substrate ENLYPQS | area with substrate ENLYSQS | area with substrate ENLYVQS | area with substrate ENLYYQS | area with substrate ENLYQQS | area with substrate ENLYRQS | area with substrate ENLYTQS | area with substrate ENLYWQS | area with substrate ENLYMQS
1 | N53C | 0.0794 | 0.0822 | 0.0514 | 0.0607 | 0.0687 | 0.0652 | 0.0992 | 0.0597 | 0.0585 | 0.0834 | 0.0642 | 0.0689 | 0.113 | 0.083 |  |  |  |  | 
2 | N53S | 0.0881 | 0.0854 | 0.052 | 0.0671 | 0.0774 | 0.0805 | 0.122 |  |  | 0.0729 | 0.0747 | 0.074 | 0.108 | 0.07 | 0.0601 | 0.0585 | 0.0783 | 0.089 | 
3 | P14A | 0.0867 | 0.0979 | 0.0528 | 0.0755 | 0.0726 | 0.0904 | 0.13 | 0.0681 | 0.0835 | 0.0718 | 0.072 |  | 0.157 | 0.083 |  | 0.0559 |  | 0.0869 | 0.0551
4 | P14M | 0.0642 | 0.0787 | 0.0592 | 0.0681 | 0.064 | 0.0683 | 0.0903 | 0.0651 | 0.0792 | 0.0682 | 0.0761 | 0.0798 | 0.0577 | 0.0476 | 0.0654 | 0.061 | 0.0792 | 0.107 | 0.0837
5 | L205M | 0.102 |  | 0.0575 | 0.0736 | 0.0721 | 0.0678 | 0.1 | 0.036 | 0.0892 | 0.0514 | 0.0839 | 0.0724 | 0.0856 | 0.0828 | 0.0693 |  | 0.0934 | 0.0854 | 0.0882
6 | S124R | 0.0975 |  | 0.0837 | 0.076 | 0.0708 | 0.0538 | 0.116 | 0.0581 | 0.0634 | 0.0668 | 0.0711 | 0.0687 | 0.129 | 0.0834 | 0.0546 | 0.0656 | 0.0899 | 0.0908 | 0.078
7 | S124V | 0.0724 |  | 0.0639 | 0.0793 | 0.0666 | 0.0476 | 0.111 | 0.0656 |  | 0.0711 | 0.0664 | 0.071 | 0.103 |  | 0.0596 | 0.0537 | 0.0712 | 0.103 | 0.104
8 | S171M | 0.0894 | 0.0338 |  | 0.0469 | 0.0604 | 0.0679 | 0.0654 | 0.0609 |  | 0.0572 | 0.0577 | 0.0816 | 0.0653 |  | 0.0775 |  | 0.0621 | 0.0663 | 0.0619
9 | G39R | 0.0595 |  | 0.0427 | 0.0493 | 0.0629 | 0.0575 |  | 0.0371 | 0.0437 |  | 0.0485 | 0.0703 | 0.0486 | 0.0147 | 0.0428 | 0.0502 | 0.0482 | 0.0364 | 0.0396
10 | G39E | 0.0522 | 0.0566 | 0.0569 | 0.0343 | 0.0437 | 0.0539 |  |  |  | 0.0341 | 0.0528 | 0.0417 |  | 0.0425 | 0.0019 | 0.0449 |  | 0.0478 | 0.0246
11 | I15K | 0.0516 |  | 0.0561 | 0.0612 | 0.0543 | 0.0673 |  | 0.0605 | 0.0527 | 0.0548 | 0.0582 | 0.0474 | 0.0869 |  | 0.0448 | 0.0438 | 0.0575 | 0.0625 | 
12 | F92C | 0.0885 |  | 0.0662 | 0.06 | 0.0525 | 0.0709 | 0.112 | 0.0266 | 0.0537 | 0.0563 | 0.0653 | 0.0732 | 0.129 | 0.0657 | 0.0652 | 0.0683 | 0.0919 | 0.086 | 0.0938
13 | K185G | 0.089 |  |  | 0.0631 |  | 0.0703 |  | 0.0428 |  | 0.0693 | 0.0761 |  | 0.111 |  |  |  |  | 0.0925 | 
14 | S169M | 0.0644 | 0.0715 | 0.0766 | 0.0624 | 0.058 | 0.066 | 0.0663 | 0.051 | 0.0517 | 0.065 | 0.0542 | 0.0586 | 0.085 | 0.0567 | 0.0555 | 0.054 |  | 0.0645 | 0.0616
15 | R204L | 0.0365 | 0.0817 | 0.0662 | 0.0649 | 0.0635 | 0.066 | 0.144 |  | 0.0664 | 0.0673 | 0.065 | 0.0695 | 0.109 |  |  | 0.0641 |  | 0.0701 | 0.083
16 | I36M | 0.0617 | 0.085 | 0.0683 | 0.0614 | 0.0483 | 0.0659 | 0.139 |  | 0.0726 | 0.0655 | 0.0692 | 0.0456 | 0.134 |  | 0.0635 |  |  | 0.0778 | 0.0891
17 | N177S | 0.0679 |  | 0.0397 | 0.0535 | 0.0499 | 0.0466 | 0.0805 | 0.0491 | 0.0624 | 0.0511 | 0.0634 | 0.065 | 0.0877 | 0.0484 | 0.0416 | 0.0507 | 0.0567 | 0.0418 | 0.0704
18 | V78Y | 0.061 | 0.0771 | 0.0619 | 0.0599 | 0.059 | 0.0739 | 0.0784 | 0.0657 |  |  | 0.0566 |  | 0.0668 | 0.0491 | 0.0533 | 0.0708 |  | 0.0685 | 0.0273
19 | H29N | 0.101 |  | 0.055 | 0.0679 | 0.0729 | 0.0653 | 0.111 | 0.0631 |  | 0.0638 | 0.0752 | 0.049 | 0.101 | 0.0652 | 0.0923 | 0.0376 | 0.0784 | 0.0774 | 0.059
20 | G54V | 0.0652 | 0.0744 | 0.05 | 0.0589 |  | 0.0577 | 0.0752 | 0.0586 | 0.0547 | 0.0438 | 0.0533 | 0.0648 |  |  | 0.0593 | 0.0615 |  | 0.0638 | 0.0739
21 | L191K | 0.115 |  | 0.0603 | 0.0569 | 0.0478 | 0.0593 | 0.0589 | 0.0592 | 0.0476 | 0.06 | 0.0673 | 0.0575 | 0.0492 | 0.0605 | 0.0571 | 0.0491 |  | 0.0564 | 0.0685
22 | Q234W | 0.0712 | 0.0793 | 0.0651 | 0.0701 | 0.0599 | 0.0663 | 0.168 | 0.0306 | 0.116 | 0.0634 | 0.0335 | 0.0744 | 0.112 | 0.0628 |  | 0.0608 |  | 0.0923 | 
